Data on 45 compounds can be found in article PMC4336329 (PLoS ONE, 2015).

About 2,200 (0.71%) of roughly 310,000 compounds showed an effect of 50% or more. Effects have a minus sign here. This is one part of the list.

human ether-à-go-go-related gene (hERG) potassium channel, sequence (Q12809 whole entry, looked up): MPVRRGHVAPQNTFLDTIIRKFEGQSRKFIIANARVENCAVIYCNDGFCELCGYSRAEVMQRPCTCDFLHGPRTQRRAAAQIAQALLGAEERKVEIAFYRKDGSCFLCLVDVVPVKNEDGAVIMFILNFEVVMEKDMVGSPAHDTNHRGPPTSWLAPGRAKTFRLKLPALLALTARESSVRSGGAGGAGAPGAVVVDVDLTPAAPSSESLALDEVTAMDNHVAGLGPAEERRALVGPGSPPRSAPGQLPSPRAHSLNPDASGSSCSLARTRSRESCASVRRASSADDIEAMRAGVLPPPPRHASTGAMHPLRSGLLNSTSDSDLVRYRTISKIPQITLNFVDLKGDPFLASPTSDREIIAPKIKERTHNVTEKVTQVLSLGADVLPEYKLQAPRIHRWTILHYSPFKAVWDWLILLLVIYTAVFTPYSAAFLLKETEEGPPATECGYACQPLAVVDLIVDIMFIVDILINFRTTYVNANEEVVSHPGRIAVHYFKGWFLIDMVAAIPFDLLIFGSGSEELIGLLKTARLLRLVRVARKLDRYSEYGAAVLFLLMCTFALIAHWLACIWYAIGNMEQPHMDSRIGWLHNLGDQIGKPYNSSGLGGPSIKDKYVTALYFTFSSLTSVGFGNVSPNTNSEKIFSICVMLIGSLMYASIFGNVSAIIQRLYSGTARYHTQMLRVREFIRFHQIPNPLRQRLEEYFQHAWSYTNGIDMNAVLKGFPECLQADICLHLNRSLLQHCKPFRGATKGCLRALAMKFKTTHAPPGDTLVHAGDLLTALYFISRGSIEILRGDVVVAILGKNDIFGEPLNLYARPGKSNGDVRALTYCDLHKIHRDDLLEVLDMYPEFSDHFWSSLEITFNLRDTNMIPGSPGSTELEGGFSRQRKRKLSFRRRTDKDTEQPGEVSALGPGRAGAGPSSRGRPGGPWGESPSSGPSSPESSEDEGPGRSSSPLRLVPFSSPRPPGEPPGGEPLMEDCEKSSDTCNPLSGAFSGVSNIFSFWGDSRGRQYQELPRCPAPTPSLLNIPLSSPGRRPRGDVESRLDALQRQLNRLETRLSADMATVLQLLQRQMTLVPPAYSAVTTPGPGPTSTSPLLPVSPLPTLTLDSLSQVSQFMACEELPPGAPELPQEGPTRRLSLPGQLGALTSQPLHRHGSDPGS

This assay has as its target human ether-à-go-go-related gene (hERG) potassium channel (human, UniProt Q12809). As to the kind of experiment: primary screen, population patch clamp on CHO cells stably expressing hERG.
Regarding `Cc1ncc(CO)c2c1OC(C)(C)OC2`, the “hERG current change (%, negative = inhibition) at 1uM” value was found to be 14.1%.
Under `Cc1ccc(-c2nc3ccccc3c(C(=O)NCc3cccs3)c2C)cc1` stands 5.24%.
Next, `Cc1ccc(OCCCC(=O)Nc2nnc(C3CCCO3)s2)c(C)c1` (stereo not drawn): 7.57%.
Next, `OC(c1cc(-c2ccc(Cl)cc2)nc2ccccc12)C1CCCCN1` (stereo not drawn): -6.99%.
Consider `COc1cc(C)nc(NC(=O)NC(=O)c2ccc(C(F)(F)F)cc2)n1`, for which the “hERG current change (%, negative = inhibition) at 1uM” value is 18%.
`Cc1cc(C)n2nc(SCc3cccc(F)c3)nc2n1`: the “hERG current change (%, negative = inhibition) at 1uM” value was found to be 11.8%.
Under `COc1ccc(CNCCC2(C(C)C)CCOC(C)(C)C2)cc1` (stereo not drawn) stands 3.31%; under `CC(NS(=O)(=O)c1cccc(C(=O)NCc2ccncc2)c1)c1ccccc1` (stereo not drawn), 9.66%; under `Cc1cc(OCC(O)CN2C(C)CCCC2C)ccc1C(C)C` (stereo not drawn), 5.67%.
Under `COc1ccc(NS(=O)(=O)c2ccc(-n3nnc4ccccc43)c([N+](=O)[O-])c2)cc1` stands 3.82%.
Under `S=C(NCc1ccco1)NCC1CCCO1` (stereo not drawn) stands 0.9%; under `Cc1ccsc1C(=O)NNC(=S)NCC(C)C`, 6.97%.
`COc1cc2c(cc1OC)C(C)N(CC(=O)Nc1ccc(S(=O)(=O)N3CCCC3)cc1)CC2` (stereo not drawn): the “hERG current change (%, negative = inhibition) at 1uM” value came to 11.9%.
Under `CCOC(=O)CC(NC(=O)c1ccco1)c1ccccc1Cl` (stereo not drawn) stands 5.6%; under `CC1CCN(C2=NC(=O)/C(=C/c3ccccc3F)S2)CC1`, 2.81%.
Next, `CC1=NCCN1CCNC(=O)Nc1cc(C)cc(C)c1`: 7.02%; `Cc1ccc(C(=O)C(C)Oc2ccc3ccc(=O)oc3c2)cc1` (stereo not drawn): 11.5%; `Cc1noc(C)c1C(=O)Nc1nc2ccc(F)cc2s1`: 2.2%.
`CCc1nnc(NC(=O)CSc2nnc(C)n2CC2CCCO2)s1` (stereo not drawn): the “hERG current change (%, negative = inhibition) at 1uM” value is 11%.
Next, `Cc1ncc(CO)c2c1Oc1nc(-c3ccccc3)nc(SCC(=O)N3CCOCC3)c1C2`: 11.4%.
Next, `COc1ccc(CNC(=O)[C@H](NC(=O)C2CCN(C(=O)[C@@H](N)CCSC)CC2)C(C)C)cc1`: 4.4%; `COCCNC(=O)CSc1nc2nn(-c3ccccc3)c(=O)c-2c2n1CCCCC2`: 17%.
In the case of `CC(=O)C(C(c1ccccc1)c1c[nH]c2ccccc12)[N+](=O)[O-]` (stereo not drawn), the “hERG current change (%, negative = inhibition) at 1uM” value turned out to be 11.3%.
Next, `O=C(c1ccc(-n2cncn2)c([N+](=O)[O-])c1)N1CCN(S(=O)(=O)c2ccc(F)c(F)c2)CC1`: -28.8%; `CCCCNC(=O)C1CC(=O)N(CCc2ccccc2)C1` (stereo not drawn): 11.2%.
Next, `Cc1ccc([N+](=O)[O-])cc1N1C(=O)CS/C1=N\NC(=O)c1cccnc1`: 9.91%; `COc1ccc(N=C2SC(CC(=O)Nc3ccccc3)C(=O)N2CC2CCCO2)cc1` (stereo not drawn): 8.68%.
Under `O=C(Nc1nnc(C2CC2)s1)C1CCCCN1S(=O)(=O)c1ccccc1` (stereo not drawn) stands 3.65%.
For the compound `CC(Sc1nncn1C)C(=O)Nc1nnc(C(C)C)s1` (stereo not drawn), the “hERG current change (%, negative = inhibition) at 1uM” value worked out at 6.33%.
Under `COc1cnc(-c2ccccn2)nc1Sc1ccc(C)cc1` stands 18.2%; under `O=C(Nc1ccc(N2CCCC2)c(Cl)c1)c1ccc([N+](=O)[O-])cc1`, 20.1%; under `Cc1cc(C(=O)Nc2ccc(F)cc2)c2ccccc2n1`, 6.95%.
Under `CCN(CC)CCNC(=O)c1ccc(NC(=O)C2CCN(S(=O)(=O)c3ccc4c(c3)OCCO4)CC2)cc1` stands 24.6%.
For the compound `CCOC(=O)c1cnc2c(OC)cccc2c1N1CC(C)CC(C)C1` (stereo not drawn), the “hERG current change (%, negative = inhibition) at 1uM” value came out at 7.23%.
Under `[O-][n+]1ccc(C2CC2)cc1` stands 8.66%.
Under `COc1ccc(Oc2ccc(S(=O)(=O)N3CCCCC3)cc2S(=O)(=O)N2CCCCC2)cc1` stands 9.35%.
Turning to `NC(=O)c1ccccc1NS(=O)(=O)Cc1ccccc1`, the “hERG current change (%, negative = inhibition) at 1uM” value came out at 14.2%.
Next, `Cc1cccc(OCC(=O)O/N=C(\N)c2ccc(Br)cc2)c1`: 9.06%; `CCN(CC)c1ccc(/C=N/N2CCOCC2)c(O)c1`: 11.5%.
Under `CCn1c(=O)c(C(=O)NCc2ccc(OC)c(OC)c2)c(O)c2ccccc21` stands 13.9%; under `O=C1C2C3C=CC(C3)C2C(=O)N1CNc1ccc(O)cc1` (stereo not drawn), 0.288%; under `Cc1noc(C)c1-c1nc(CSc2ccccc2)no1`, 7.31%.
Under `CN(C)S(=O)(=O)c1ccc(NC(=O)c2ccc3ncsc3c2)cc1` stands 2.55%; under `O=C(CN1CC=C(c2ccccc2)CC1)NC(=O)NCc1ccco1`, 13.9%.
For `CC(Sc1nnc(-c2ccncc2)n1C)C(=O)NCC1CCCO1` (stereo not drawn), the “hERG current change (%, negative = inhibition) at 1uM” value amounted to 9.37%.
